The text below walks through data of article PMC8421406, “C9orf72-derived arginine-rich poly-dipeptides impede phase modifiers” (Nature Communications, 2021).

The chains behind the UniProt entries cited, without tags or fusion partners.
UniProt Q92973: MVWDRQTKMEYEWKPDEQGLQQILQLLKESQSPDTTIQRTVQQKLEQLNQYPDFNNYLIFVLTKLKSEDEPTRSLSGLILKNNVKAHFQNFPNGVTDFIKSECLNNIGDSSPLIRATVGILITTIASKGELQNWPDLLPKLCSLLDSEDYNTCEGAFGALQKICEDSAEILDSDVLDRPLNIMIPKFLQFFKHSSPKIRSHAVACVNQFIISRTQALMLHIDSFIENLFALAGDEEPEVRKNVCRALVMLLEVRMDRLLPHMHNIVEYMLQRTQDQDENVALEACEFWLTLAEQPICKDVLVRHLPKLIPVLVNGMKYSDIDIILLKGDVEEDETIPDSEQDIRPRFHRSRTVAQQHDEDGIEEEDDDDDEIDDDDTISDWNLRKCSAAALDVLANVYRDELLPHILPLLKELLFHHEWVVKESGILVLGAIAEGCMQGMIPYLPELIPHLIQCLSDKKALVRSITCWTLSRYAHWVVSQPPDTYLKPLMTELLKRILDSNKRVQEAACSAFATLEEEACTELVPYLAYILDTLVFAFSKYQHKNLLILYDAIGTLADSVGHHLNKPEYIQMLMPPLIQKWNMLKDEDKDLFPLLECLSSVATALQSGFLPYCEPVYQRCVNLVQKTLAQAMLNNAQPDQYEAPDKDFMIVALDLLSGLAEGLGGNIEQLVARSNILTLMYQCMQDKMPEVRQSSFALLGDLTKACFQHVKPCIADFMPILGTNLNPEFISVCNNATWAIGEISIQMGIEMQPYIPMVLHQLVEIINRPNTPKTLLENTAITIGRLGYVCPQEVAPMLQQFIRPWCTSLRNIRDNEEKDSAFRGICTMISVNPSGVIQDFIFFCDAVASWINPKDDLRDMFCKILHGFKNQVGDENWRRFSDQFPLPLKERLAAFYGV
UniProt Q14974: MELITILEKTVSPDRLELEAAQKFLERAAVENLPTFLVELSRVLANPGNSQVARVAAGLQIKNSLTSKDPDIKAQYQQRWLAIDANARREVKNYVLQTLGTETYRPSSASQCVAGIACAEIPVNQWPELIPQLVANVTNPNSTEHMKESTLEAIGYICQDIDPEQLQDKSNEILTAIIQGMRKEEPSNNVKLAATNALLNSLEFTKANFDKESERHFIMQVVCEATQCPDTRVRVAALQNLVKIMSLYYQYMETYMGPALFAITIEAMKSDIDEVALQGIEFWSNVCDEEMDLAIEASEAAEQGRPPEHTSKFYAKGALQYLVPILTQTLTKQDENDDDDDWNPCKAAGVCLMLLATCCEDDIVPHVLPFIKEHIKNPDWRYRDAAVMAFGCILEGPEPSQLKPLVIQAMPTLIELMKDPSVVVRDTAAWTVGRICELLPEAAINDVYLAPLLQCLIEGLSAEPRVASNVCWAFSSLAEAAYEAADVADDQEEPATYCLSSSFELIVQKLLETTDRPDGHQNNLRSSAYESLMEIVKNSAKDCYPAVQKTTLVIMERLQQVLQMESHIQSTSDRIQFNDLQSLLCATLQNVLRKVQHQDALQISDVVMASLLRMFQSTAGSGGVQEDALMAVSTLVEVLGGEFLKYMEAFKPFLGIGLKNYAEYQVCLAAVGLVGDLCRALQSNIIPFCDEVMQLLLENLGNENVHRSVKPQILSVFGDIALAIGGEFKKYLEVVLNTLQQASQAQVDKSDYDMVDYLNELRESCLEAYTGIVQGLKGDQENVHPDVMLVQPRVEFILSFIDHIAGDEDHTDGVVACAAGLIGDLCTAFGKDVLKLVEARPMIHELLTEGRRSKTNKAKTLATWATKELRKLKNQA

Experiment [1] addresses karyopherin-β2 (Kapβ2) (UniProt Q92973). Description: NMR titration; 1H-13C methyl HMQC of 20 μM isotopically labeled Kapβ2 in the absence and presence of PR20:HA; 20 °C; 20 mM 2H-Tris pH 7.4, 150 mM NaCl, 2 mM MgCl2, 2 mM DTT, 2% glycerol; both purified.
The target in experiment [2] is GST:Kapβ2 (UniProt Q92973). The experiment in a line: pull-down; competitive binding assay: GST:Kapβ2 immobilized on GSH beads, incubated with equal molar MBP:FUS-NLS ± PR20:HA for 20–30 min, washed three times; bound and unbound proteins on SDS-PAGE, Coomassie; both purified.
The target in experiment [3] is karyopherin-β2 (Kapβ2) (UniProt Q92973). Description: NMR titration; 1H-13C methyl HMQC of 20 µM isotopically labeled Kapβ2 (free or in complex with M9M) in the absence and presence of the ligand; 20 mM 2H-Tris pH 7.4, 150 mM NaCl, 2 mM MgCl2, 2 mM DTT, 2% glycerol; 20 °C; both purified.
Experiment [4] deals with GST:Kapβ2 (UniProt Q92973). Description: pull-down; 4 μg GST protein immobilized on 30 μL GSH sepharose beads, incubated with equal molar protein for 20–30 min, washed three times; 20 mM HEPES pH 7.4, 150 mM NaCl, 10% glycerol, 2 mM Mg(OAc)2, 2 mM DTT; SDS-PAGE, Coomassie; both purified.
Experiment [5] concerns the target karyopherin-β2 (Kapβ2) (UniProt Q92973). The experiment in a line: AUC; sedimentation velocity, 28 µM Kapβ2 + 28 µM MBP:PR18 and each alone; 20 mM HEPES pH 7.4, 150 mM NaCl, 2 mM MgCl2, 2 mM DTT, 10% glycerol; 25 °C; interference optics; both purified.
Experiment [6] concerns the target GST:Importinβ1 (UniProt Q14974). The experiment in a line: pull-down; 4 µg GST protein immobilized on 30 µL GSH sepharose beads, incubated with equal molar protein 20–30 min, washed three times; 20 mM HEPES pH 7.4, 150 mM NaCl, 10% glycerol, 2 mM Mg(OAc)2, 2 mM DTT; SDS-PAGE, Coomassie; both purified.
The target of experiment [7] is karyopherin-β2 (Kapβ2) (UniProt Q92973). Description: AUC; sedimentation velocity, Rayleigh-interference optics, 25 °C; 28 µM Kapβ2, 28 µM MBP:PR18 and their mixture; 20 mM HEPES pH 7.4, 150 mM NaCl, 2 mM MgCl2, 2 mM DTT, 10% glycerol; both purified.
For experiment [8], the target named is GST:Importinβ1 (UniProt Q14974). The experiment in a line: pull-down; 4 μg GST protein immobilized on 30 μL GSH sepharose beads, incubated with equal molar protein for 20–30 min, washed three times; 20 mM HEPES pH 7.4, 150 mM NaCl, 10% glycerol, 2 mM Mg(OAc)2, 2 mM DTT; SDS-PAGE, Coomassie; both purified.

Results are given in words; binding and its absence hold for the method and conditions named. Some results given as binding are weak or reduced against the parent protein; the word gives no strength. Where a sequence is shown, tags or fusion partners need not be part of it.

B1: PR20:HA (twenty repeats of PR with an HA epitope tag at the C terminus) (peptide)
peptide: PRPRPRPRPRPRPRPRPRPRPRPRPRPRPRPRPRPRPRPR
Turning to B1, the binding result in experiment [1], in experiment [2] and in experiment [3] was “binds” each time.

B2: MBP:PR8 (8 repeats of Pro-Arg) (peptide)
chain: PRPRPRPRPRPRPRPR
On to B2, for which the binding entry in experiment [4] is listed as “no binding”.

B3: MBP:PR18 (maltose-binding protein fused to 18 repeats of Pro-Arg) (peptide)
chain: PRPRPRPRPRPRPRPRPRPRPRPRPRPRPRPRPRPR
For the molecule B3, the binding entry in experiment [5] and in experiment [6] was “binds” throughout.

B4: MBP:PR18 (18 repeats of Pro-Arg) (peptide)
chain: PRPRPRPRPRPRPRPRPRPRPRPRPRPRPRPRPRPR
With B4, the binding result in experiment [7], in experiment [8] and in experiment [4] was “binds” throughout.
